Results published in patent US8754051B2, “Peptide modulators of the δPKC interaction with the d subunit of F1Fo ATP synthase/ATPase and uses thereof” (Georgia Regents Research Institute, Inc., priority 2009, dated 2014).

Test system: F1Fo ATPase
Test: Oligomycin-sensitive F1Fo ATPase activity in NCMs after 4-β PMA
Description: FIG. 2: 4-β PMA attenuates F1Fo ATPase activity. Neonatal cardiac myocytes (NCMs) were treated as in FIG. 1. The oligomycin-sensitive F1Fo ATPase activity was measured spectrophotometrically using sonicated NCM lysates. Results are expressed as mean±S.E. from 4 independent experiments, each conducted in triplicate, using samples from four different myocyte preparations. Asterisks indicate statistically significant differences between 4-α PMA and either 3 or 100 nM 4-β PMA (p<0.001).
To determine if the above δPKC-dF1Fo co-IP correlated with changes in F1Fo activity, mitochondria from NCMs were isolated and the F1Fo complex were solublized. Since the mitochondrial electrochemical/proton gradient is disrupted by these isolation procedures, the enzyme operates in reverse-mode as an ATPase. Therefore, F1Fo ATPase activity in these assays was monitored as an index of F1Fo complex activity. NCMs were exposed to 0, 3, or 100 nM 4-β PMA and assayed for F1Fo ATPase activity. 3 nM 4-β PMA inhibited the basal, oligomycin-sensitive F1Fo ATPase activity by 39.7±3.1%. This inhibition was increased to 72.1±9.4% follow-ing a 20 min, 100 nM 4-β PMA exposure (FIG. 2). Mean±S.E. values are plotted in FIG. 2 from 4 independent experiments, each from a separate NCM preparation. (*) denotes statistically different from 0 nM PMA group.

## CCCCCCCCCCCCCC(=O)O[C@@H]1[C@@H](C)[C@@]2(O)[C@@H](C=C(CO)C[C@]3(O)C(=O)C(C)=C[C@@H]23)[C@@H]2C(C)(C)[C@]12OC(C)=O [4-β PMA, 4-β phorbol 12-myristate-13-acetate]
3 nM 4-β PMA, 1 hr
  inhibition of basal oligomycin-sensitive F1Fo ATPase activity: 39.7±3.1%
100 nM 4-β PMA, 20 min
  inhibition of basal oligomycin-sensitive F1Fo ATPase activity: 72.1±9.4%
